# Test results taken from article PMC9574860, “Chemical Toolkit for PARK7: Potent, Selective, and High-Throughput” (Journal of Medicinal Chemistry, 2022).
# Hit rate of the full screen: of about 7,900 compounds, about 400 (5.1%) showed an effect of 50% or more. This is one part of the list.
# Target: Parkinson's disease protein 7 (PARK7/DJ1) (human, UniProt Q99497)
# Assay: primary screen, percent inhibition; read as competition with a fluorescent probe by fluorescence polarization; higher = more effect of the substance
# Conditions: 100 µM
# Summary of the method: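 Covalent fragments at 100 μM final were incubated 2 h with 0.2 μM PARK7, then 20 nM probe JYQ-107 added for a further 2 h. Fluorescence polarization read at 480/520 nm; relative FP loss versus reference controls gave remaining enzyme activity.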
# Chain of Parkinson's disease protein 7 (PARK7/DJ1) (Q99497 whole entry, looked up): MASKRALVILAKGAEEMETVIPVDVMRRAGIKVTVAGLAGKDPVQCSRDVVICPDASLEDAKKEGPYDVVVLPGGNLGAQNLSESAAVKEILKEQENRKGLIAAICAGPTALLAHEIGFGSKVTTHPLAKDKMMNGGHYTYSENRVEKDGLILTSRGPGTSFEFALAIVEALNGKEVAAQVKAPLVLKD
row,Compound,Inhibition %
1,N#Cc1ccc(OC(=O)N2CCOCC2)cc1,6.29%
2,C=CC(=O)N(C)CCn1c(=O)oc2ccccc21,16.4%
3,C[C@@H](CO)NS(=O)(=O)C=Cc1ccccc1,8.92%
4,C=CC(=O)N1CC[C@@H]2OCC[C@@H]2C1 (racemic),14.8%
5,CC(C)Cn1cnc(C#N)n1,5.66%
6,C=CC(=O)NC1CCN(c2cccc(C)n2)CC1,7.9%
7,N#Cc1ccc(OC(=O)N2CCCCC2)cc1,9.24%
8,Cc1ccc(Oc2ccccc2NC(=O)CCl)cc1,2.56%
9,O=C1NC(C2CC2)C12CCCO2 (stereo not shown),-1.99%
10,O=C1CN(C(=O)CCl)CCN1,62.6%
11,Cc1csc(C(C#N)=Cc2cccc(O)c2)n1,16.2%
12,CN(Cc1cnn(C)c1)C(=O)CCl.Cl,20.6%
13,C=CC(=O)N1CC(c2ccccc2)C2COCCC21 (stereo not shown),9.83%
14,CCc1cc(S(=O)(=O)n2ccc(C)n2)ccc1OC,1.65%
15,O=C(CCCl)Nc1ccc2c(c1)OCCO2,7.65%
16,Cc1ccc(F)c(N(C#N)CCN2C(=O)CCC2=O)c1,7.05%
17,C=CS(=O)(=O)N1CCN(C(=O)OCc2ccccc2)CC1,3.15%
18,Cc1cn2c(C=C(C#N)c3ccccn3)c(C)nc2s1,13.6%
19,C=CC(=O)Nc1nc(COC)cs1,8.35%
20,Cc1cc(NC(=O)CCl)n(C)n1,24.5%
21,C=CC(=O)NC1COc2cc(F)ccc2C1 (stereo not shown),10.8%
22,CCOc1ccc(C)cc1S(=O)(=O)n1ccnc1CC,0.782%
23,CC1CCCC(C)N1C(=O)CCl (stereo not shown),9.33%
24,CC(=O)NCc1ccc(C(=O)CCl)o1,92.2%
25,CCOc1ccc(C=C(C#N)C(=O)O)cc1,0.974%

row,Compound,Inhibition %
1,COc1cc(C)c(C(C)C)cc1S(=O)(=O)n1cccn1,4.05%
2,Cl.NCCCC1CCOC1=O (stereo not shown),6.3%
3,CNS(=O)(=O)Nc1ccc(B2OC(C)(C)C(C)(C)O2)cc1,32.7%
4,Cc1ccc(B2OC(C)(C)C(C)(C)O2)cc1Cl,0.734%
5,CC1(C)OB(c2ccc(C3CC3)c(C#N)c2)OC1(C)C,7.98%
6,C=CC(=O)NCc1c(C)c2ccccc2n1C,-1.86%
7,C=CC(=O)N(C)Cc1c(C)nn(C)c1C,9.29%
8,CC(=CB1OC(C)(C)C(C)(C)O1)c1ccnn1C,2.29%
9,CC(C)c1nc(C(C)Nc2ccc(C#N)nc2)cs1 (stereo not shown),3.63%
10,N#CC(=Cc1ccccc1)c1nnc2n1CCCCC2,4.87%
11,O=C1N(c2ccccc2)C(c2ccco2)C1(F)F (stereo not shown),3.32%
12,Nc1nc(CCCl)cs1,1.64%
13,N#Cc1cccc(N2C[C@@H](F)C[C@H]2CO)n1,4.99%
14,Cc1ccccc1CCNC(=O)CCl,8.29%
15,C=CC(=O)N1CCCC(Cc2ccccc2)C1 (stereo not shown),7.52%
16,O=C(CCl)NCCc1cccs1,31.1%
17,C=CC(=O)N1CCC(C2C(=O)Nc3ccccc32)CC1 (stereo not shown),8.17%
18,O=C(CCl)Nc1cc(-n2cnnn2)ccc1F,1%
19,N#Cc1nc(N2CCC(CCO)C2)ccc1Cl (stereo not shown),6.75%
20,N#Cc1ncn(CCS(=O)c2cc(Cl)ccc2Cl)n1 (stereo not shown),4.81%
21,COC(=O)c1cccc(NC(=O)CCl)n1,4.72%
22,O=C(c1cccs1)N1CCOC(CS(=O)(=O)F)C1 (stereo not shown),14.7%
23,CC1CC(Sc2ncn(-c3ccccc3)n2)C(=O)O1 (stereo not shown),2.64%
24,C=CC(=O)N1CCC(c2ccncn2)CC1,18.2%
25,COc1ccc(-c2nc(C#N)c(NC(C)C)o2)cc1,4.9%

row,Compound,Inhibition %
1,CC1(C)C(=O)Nc2ccc(C(=O)CCl)cc21,32.9%
2,CC(=O)NCCCN(C)c1nc2ccccn2c1C#N,15.4%
3,C=CC(=O)NC1CN(C2CC2)CC1C (stereo not shown),11.3%
4,COC(OC)c1ccnc(C)n1,6.21%
5,CC1(C)OB(c2ccc(S(F)(F)(F)(F)F)cc2)OC1(C)C,9.09%
6,O=C(CCl)Nc1cccc(S(=O)(=O)N=C2CCCN2)c1,18.3%
7,C=CC(=O)NCC1(c2ccc(F)cc2)CC1,9.53%
8,CC1(C)OB(c2ccc(C3CC(F)(F)C3(F)F)cc2)OC1(C)C (stereo not shown),2.09%
9,CN(c1ccc(C(=O)CCl)cc1)S(C)(=O)=O,94.3%
10,CC1CC1C(=O)N1CCCCC1CCS(=O)(=O)F (stereo not shown),57.7%
11,C=CC(=O)NCC1CCCc2ccccc21 (stereo not shown),4.88%
12,Cc1cnccc1B1OC(C)(C)C(C)(C)O1,2.89%
13,C=CC(=O)Nc1cccc(N2CCCNC2=O)c1,2.97%
14,N#Cc1ccnc(C(F)(F)F)c1,14.9%
15,C=CC(=O)N1CCN(C(C)c2ccccc2Cl)CC1 (stereo not shown),7.63%
16,C=CC(=O)NCC1(N2CCSCC2)CCCC1,9.29%
17,C#CC(=O)NCc1ccccc1,-1.57%
18,Cc1csc2ccc(B(O)O)cc12,5.69%
19,C=CC(=O)N1CCOc2cc(C)ccc21,11.4%
20,CS(=O)(=O)N1CCC(CCl)C1 (stereo not shown),-0.704%
21,C=CC(=O)N1CCC(c2ccccn2)CC1,5.49%
22,C=CC(=O)NCC1(COC)OCCc2ccccc21 (stereo not shown),6.32%
23,O=C(Nc1ccccc1Cl)N1CCC(C2OCCO2)CC1,12.8%
24,C=CC(=O)N(C1CC1)C1CCS(=O)(=O)C1 (stereo not shown),10.3%
25,CCc1ccc(S(=O)(=O)n2cccn2)cc1,14.7%

row,Compound,Inhibition %
1,N#Cc1nccnc1Oc1ccc(Cl)cc1,-0.867%
2,O=C1c2ccccc2C(=O)N1CCS(=O)(=O)F,22.5%
3,CN(C)S(=O)(=O)c1ccccc1CNC(=O)CCl,4.96%
4,C=CC(=O)NC(C)c1cccc(N2CCCC2)c1 (stereo not shown),24%
5,CCOc1ccc(S(=O)(=O)n2ccnc2)cc1C(C)(C)C,3.5%
6,COCC(C)NC(=O)C(C#N)=Cc1occc1C (stereo not shown),5.2%
7,C=CC(=O)N1CCC[C@H]1C(=O)N(C)C,18.6%
8,Cc1nccn1CCCl.Cl,2.86%
9,Cc1cc(C=C(C#N)C(N)=O)c(C)n1Cc1ccco1,7.44%
10,CS(=O)(=O)C(C#N)=Cc1cnn(-c2ccccc2)c1,10.2%
11,C=CC(=O)N1CCN(C)CC1,0.116%
12,CC1(C)OB(c2c(F)cc(F)cc2F)OC1(C)C,2.48%
13,CCN(C#N)CCN1CC2CCCN2CC1C (stereo not shown),17.2%
14,O=C(CCl)NCc1ccc(N2CCOCC2)c(F)c1,10.8%
15,Cc1ccc(NC(=O)NC(=O)CCl)cc1C,3.45%
16,Cl.Cn1nccc1C=CC(=O)N1CCCC(N)C1 (stereo not shown),15.1%
17,Cc1ccc(C=CC(=O)N2CCCn3ncnc32)o1,4.42%
18,C=CC(=O)NCC1CCC(F)(F)CC1,5.38%
19,Cn1nccc1C=C(C#N)c1ccccn1,6.39%
20,O=C(c1ccccc1)N1CCN(C(=O)n2ccnc2)CC1,2.18%
21,O=C(O)CNS(=O)(=O)C=Cc1ccccc1,84.3%
22,O=C(CCl)N(c1ccc(F)cc1)C1C=CS(=O)(=O)C1 (stereo not shown),4.62%
23,N#CC(=Cc1csc(-c2ccco2)n1)C(=O)O,15%
24,CC(C)N1CCN(c2nc3ccccn3c2C#N)CC1=O,0.891%
25,O=C(C=Cc1ccc2ccccc2n1)N1CCCS1(=O)=O,10.9%

row,Compound,Inhibition %
1,CCc1nc(C)cn1S(=O)(=O)c1cc(C)ccc1OC,2.65%
2,CN(CC(=O)Nc1ccc(Cl)cc1)C(=O)CCl,75.9%
3,CC(NC(=O)CCl)c1ccc2c(c1)CC(=O)N2 (stereo not shown),9.9%
4,O=C(CN1C(=O)CCC1=O)Nc1cccc(Cl)c1,7.52%
5,CC(NS(=O)(=O)C=Cc1ccccc1)c1ccccn1 (stereo not shown),0.0636%
6,N#CC(=Cc1ccc(F)c(F)c1)c1ccno1,5.66%
7,CN1CCN(c2ccc(C#N)nc2)CC1,7.16%
8,Cc1ccc(N2C(=O)CN=C2S)cc1,3.09%
9,CCC1CN(C(=O)c2cccnc2S)CCO1 (stereo not shown),6.34%
10,Cc1cc(C)n(-c2ccc(B(O)O)cc2)n1,6.09%
11,CC(C)N=c1ccccn1C(=O)CN1CCSC1=O,10.2%
12,CCc1ccc(C=C(C#N)S(C)(=O)=O)cc1,13.1%
13,Cc1ccc(S(=O)(=O)n2cccn2)c(C)c1,5.4%
14,O=C1OCCC1Sc1nnc2c(n1)[nH]c1ccccc12 (stereo not shown),9.57%
15,CSc1ccc(C#N)nc1,5.17%
16,C=CC(=O)Nc1ccc(F)cc1,-2.06%
17,CCc1ccc(NC(=O)CCl)cc1,99.1%
18,O=C1OCCC1Sc1ccc2ccccc2n1 (stereo not shown),-0.865%
19,C=CC(=O)N1CCCC(CC(N)=O)C1 (stereo not shown),12.1%
20,C=CC(=O)Nc1ccc2c(c1)CS(=O)(=O)C2,9.66%
21,N#Cc1ccc(Cl)cc1NC(=O)CCl,0.348%
22,C=CC(=O)NC1(CO)Cc2ccccc2C1,10.4%
23,CCc1nc(C)cn1S(=O)(=O)c1cc(F)ccc1OC,16.1%
24,Cc1ccc(C2=NN(C(=O)CCl)C(c3cccs3)C2)o1 (stereo not shown),1.69%
